Test results from PubChem BioAssay (Tox21).
Inconclusive results, whose numbers are uncertain, are shown with a selection of clear calls. For some of these results: Potencies beside an inconclusive call are fits to weak or partial responses and may not hold up. Calls of active or inactive are those of the source. Unless noted, calls follow the shape of the dose curve; as a rule, active = well fitted curve in the direction sought with a large enough effect in the repeat runs; inconclusive = weak or mixed curves; inactive = no such curve, though single readings can be large; an effect the other way counts as inactive or inconclusive.

Experiments:
[1] = qHTS assay to identify small molecule agonists of the estrogen receptor beta (ER-beta) signaling pathway - cell viability counter screen (AID 1259380); also: nearly all actives have a fitted effect of over 30% in size; also: potency is read from the fitted curve at half-maximal effect
Outline: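 ER-beta-UAS-bla HEK293T cells in medium with 2% charcoal-stripped FBS, pre-incubated 6 hr, then treated 16 hr at 37C. Cytotoxicity read in the same wells by CellTiter-Glo luminescence after 30 min at room temperature.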

[2] = target: Progesterone receptor (Homo sapiens) (UniProt P06401); experiment: qHTS assay to identify small molecule agonists of the progesterone receptor (PR) signaling pathway (AID 1346784; calls by dose curve; also: nearly all actives have a fitted effect of over 30% in size; also: potency is read from the fitted curve at half-maximal effect; as to activation: % is scaled to controls: 0 for no effect and ±100 for the full control effect); details: PR-UAS-bla HEK293T, beta-lactamase FRET ratio, 16 h; activation: at 92.4 µM (top of the series) unless noted
Outline: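 The screen uses PR-UAS-bla HEK 293T cells in charcoal-stripped serum (2%). Compounds are applied for 16 hr at 37C after a 6 hr pre-incubation, and reporter activity is detected with a FRET beta-lactamase substrate after 2 hr at room temperature.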

[3] = qHTS assay to identify small molecule antagonists of the estrogen receptor beta (ER-beta) signaling pathway - cell viability counter screen (AID 1259382); also: nearly all actives have a fitted effect of over 55% in size; also: potency is read from the fitted curve at half-maximal effect
Outline: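 ER-beta-UAS-bla HEK293T cells in 2% charcoal-stripped FBS medium, treated with compound plus 1 nM 17-beta-estradiol for 16 h at 37C. Viability read by CellTiter-Glo luminescence after 30 min at room temperature in the same wells.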

[4] = qHTS assay to identify small molecule agonists of the progesterone receptor (PR) signaling pathway - cell viability counter screen (AID 1346799; calls by dose curve; also: nearly all actives have a fitted effect of over 45% in size; also: potency is read from the fitted curve at half-maximal effect)
Outline: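 Viability was scored by ATP luminescence (CellTiter-Glo, 30 min, room temperature) in the same wells used for the reporter readout, after 16 hr compound exposure of PR-UAS-bla HEK293T cells.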

[5] = qHTS assay to identify small molecule agonists of the TGF-beta/Smad signaling pathway (AID 1346859; active = well fitted activation curve with a large enough effect in the signal ratio in the repeat runs, not every such curve was filed as active; inconclusive = weak or mixed curves; the % refers to the signal ratio; also: potency is read from the fitted curve at half-maximal effect); details: SBE-bla HEK293T, TGF-beta/Smad beta-lactamase reporter, 5 h; activation: at 76.8 µM (top of the series) unless noted
Outline: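 Dual-wavelength fluorescence (460/530 nm emission) quantified beta-lactamase expression under the Smad binding element in HEK 293T cells following 5 hr compound treatment at 37 C.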

[6] = qHTS assay to identify small molecule antagonists of the TGF-beta/Smad signaling pathway (AID 1346924; active = well fitted inhibition curve with a large enough effect in the signal ratio in the repeat runs, not every such curve was filed as active; inconclusive = weak or mixed curves; the % refers to the signal ratio; also: potency is read from the fitted curve at half-maximal effect); details: SBE-bla HEK293T, TGF-beta/Smad reporter, beta-lactamase ratio
Outline: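 SBE-bla HEK 293T cells were plated overnight, then received compound in DMSO plus TGF-beta1 (added as a 0.25 ng/mL solution) and were incubated 5 h at 37 C. Beta-lactamase reporter activity was read after 2 h at room temperature with LiveBLAzer B/G FRET substrate (ex 405, em 460/530 nm).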

[7] = target: Progesterone receptor (Homo sapiens) (UniProt P06401); experiment: qHTS assay to identify small molecule antagonists of the progesterone receptor (PR) signaling pathway (AID 1346795; active = well fitted inhibition curve with a large enough effect in the signal ratio in the repeat runs, not every such curve was filed as active; inconclusive = weak or mixed curves; the % refers to the signal ratio; also: potency is read from the fitted curve at half-maximal effect; as to activity change, negative = inhibition: % is scaled to controls: 0 for no effect and ±100 for the full control effect); details: PR-UAS-bla HEK293T, beta-lactamase FRET ratio, 16 h
Outline: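 After 6 hr plating at 37C in 2% stripped-serum medium, PR-UAS-bla HEK293T cells got compounds, then 1 nM R5020. Sixteen hours later, LiveBLAzer substrate was applied for 2 hr at room temperature and fluorescence was recorded.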

[8] = qHTS assay to identify small molecule agonists of the TGF-beta/Smad signaling pathway - cell viability counter screen (AID 1346829); also: potency is read from the fitted curve at half-maximal effect; nearly all actives have a fitted effect of over 45% in size
Outline: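 After overnight seating at 37 C and 5% CO2, reporter cells got compounds for 5 hr and FRET substrate for 2 hr; cell viability then came from CellTiter-Glo luminescence.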

[9] = qHTS assay to identify small molecule agonists of the estrogen receptor alpha (ER-alpha) signaling pathway in the presence of an antagonist - cell viability counter screen (AID 1259386);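 also: potency is read from the fitted curve at half-maximal effect; cells exposed to compounds for 22 h at 37 °C before the viability read; nearly all actives have a fitted effect of over 30% in size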
Outline: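 Cell viability in VM7Luc4E2 cells (endogenous full-length ER-alpha) measured by CellTiter-Fluor fluorescence in the same wells as the luciferase screen. Cells pre-cultured 5 days in charcoal-stripped serum, then treated 22 h with compounds at 15 concentrations plus 10.0nM ICI-182,780.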

[10] = qHTS assay to identify small molecule antagonists of the progesterone receptor (PR) signaling pathway - cell viability counter screen (AID 1346798); also: potency is read from the fitted curve at half-maximal effect; nearly all actives have a fitted effect of over 50% in size
Outline: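 Viability was determined by ATP-based luminescence (CellTiter-Glo) in PR-UAS-bla HEK293T cells cultured in 2% charcoal-stripped serum and incubated 16 hr with compounds under R5020 stimulation.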

[11] = qHTS assay to identify small molecule antagonists of the TGF-beta/Smad signaling pathway - cell viability counter screen (AID 1346824); also: potency is read from the fitted curve at half-maximal effect; nearly all actives have a fitted effect of over 50% in size
Outline: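 SBE-bla HEK 293T cells, incubated overnight, then compound plus 0.25 ng/mL TGF-beta1 (stock added) for 5 hr at 37 C. Viability was read in the same wells by CellTiter-Glo luminescence after 30 min at room temperature.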

[12] = target: Thyrotropin receptor (Homo sapiens) (UniProt P16473); experiment: qHTS assay to identify small molecule antagonists of the thyroid stimulating hormone receptor (TSHR) signaling pathway (AID 1259385; calls by dose curve; also: potency is read from the fitted curve at half-maximal effect; nearly all actives have a fitted effect of over 20% in size); details: TSHR-HEK293 cAMP HTRF, TSH-stimulated antagonist mode; activity change, negative = inhibition: at 92.4 µM (top of the series) unless noted
Outline: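 TSHR-HEK293 cells (800/well) plated 18 h, then compounds with Ro20-1724 and TSH at 1.5 ng/mL final, 30 min at room temperature. cAMP quantified by HTRF (cAMP-d2/anti-cAMP-cryptate, 1 h); 15 concentrations in triplicate.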

[13] = qHTS assay to identify small molecule agonists or antagonists of the thyroid stimulating hormone receptor (TSHR) signaling pathway - wild type cell line counter screen (AID 1259384; calls by dose curve; also: % is scaled to controls: 0 for no effect and ±100 for the full control effect); details: HEK293 wild type, cAMP HTRF counter-screen; cAMP activity change: at 92.4 µM (top of the series), active compounds read high unless noted
Outline: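 Wild-type Hek293 cells, 800/well, 18 h at 37C, then compound with Ro20-1724 for 30 min RT. cAMP by HTRF (cAMP-d2/anti-cAMP cryptate), 1 h RT, fluorescence read. 15 concentrations, triplicates.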

[14] = target: Androgen receptor (Homo sapiens) (UniProt P10275); experiment: qHTS assay to identify small molecule agonists of the androgen receptor (AR) signaling pathway in the presence of an antagonist (AID 1259381; calls by dose curve; also: potency is read from the fitted curve at half-maximal effect; nearly all actives have a fitted effect of over 15% in size)
Outline: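 MDA-kb2 cells carrying MMTV-luciferase (AR/GR responsive), 3,000 cells/well, co-treated with 3.0 uM nilutamide final. Compounds at 15 concentrations, 16 hr at 37C without CO2. Luciferase luminescence read after 30 min with ONE-Glo.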

[15] = activity, negative = inhibition: at 76.8 µM (top of the series) unless noted
[16] = activity change, negative = inhibition: at 92.4 µM (top of the series) unless noted
Tags tell the direction and shape of the fitted curve or compound fluorescence and quenching.

Sequence of UniProt P16473 (P16473 whole entry, looked up): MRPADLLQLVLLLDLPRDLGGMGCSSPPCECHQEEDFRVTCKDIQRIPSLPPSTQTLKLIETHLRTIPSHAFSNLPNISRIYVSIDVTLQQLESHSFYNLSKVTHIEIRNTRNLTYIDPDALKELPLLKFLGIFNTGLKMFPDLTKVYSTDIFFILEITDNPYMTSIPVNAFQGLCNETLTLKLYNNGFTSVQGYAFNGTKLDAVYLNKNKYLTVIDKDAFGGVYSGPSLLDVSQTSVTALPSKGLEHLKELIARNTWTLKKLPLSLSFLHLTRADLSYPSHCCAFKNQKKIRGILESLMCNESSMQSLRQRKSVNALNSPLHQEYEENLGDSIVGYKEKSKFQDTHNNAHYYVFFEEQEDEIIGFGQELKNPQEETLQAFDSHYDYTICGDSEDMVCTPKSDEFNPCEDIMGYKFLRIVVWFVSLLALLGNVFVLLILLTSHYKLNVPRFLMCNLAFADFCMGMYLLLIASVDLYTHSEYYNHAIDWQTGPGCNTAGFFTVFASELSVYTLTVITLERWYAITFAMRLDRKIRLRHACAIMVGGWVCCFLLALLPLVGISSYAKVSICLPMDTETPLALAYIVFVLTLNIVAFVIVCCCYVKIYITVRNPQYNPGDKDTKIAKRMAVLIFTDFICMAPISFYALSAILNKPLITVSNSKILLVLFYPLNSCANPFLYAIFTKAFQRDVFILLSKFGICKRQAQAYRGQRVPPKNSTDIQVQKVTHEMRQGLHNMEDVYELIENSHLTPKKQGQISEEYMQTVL
Sequence of UniProt P06401 (P06401 whole entry, looked up): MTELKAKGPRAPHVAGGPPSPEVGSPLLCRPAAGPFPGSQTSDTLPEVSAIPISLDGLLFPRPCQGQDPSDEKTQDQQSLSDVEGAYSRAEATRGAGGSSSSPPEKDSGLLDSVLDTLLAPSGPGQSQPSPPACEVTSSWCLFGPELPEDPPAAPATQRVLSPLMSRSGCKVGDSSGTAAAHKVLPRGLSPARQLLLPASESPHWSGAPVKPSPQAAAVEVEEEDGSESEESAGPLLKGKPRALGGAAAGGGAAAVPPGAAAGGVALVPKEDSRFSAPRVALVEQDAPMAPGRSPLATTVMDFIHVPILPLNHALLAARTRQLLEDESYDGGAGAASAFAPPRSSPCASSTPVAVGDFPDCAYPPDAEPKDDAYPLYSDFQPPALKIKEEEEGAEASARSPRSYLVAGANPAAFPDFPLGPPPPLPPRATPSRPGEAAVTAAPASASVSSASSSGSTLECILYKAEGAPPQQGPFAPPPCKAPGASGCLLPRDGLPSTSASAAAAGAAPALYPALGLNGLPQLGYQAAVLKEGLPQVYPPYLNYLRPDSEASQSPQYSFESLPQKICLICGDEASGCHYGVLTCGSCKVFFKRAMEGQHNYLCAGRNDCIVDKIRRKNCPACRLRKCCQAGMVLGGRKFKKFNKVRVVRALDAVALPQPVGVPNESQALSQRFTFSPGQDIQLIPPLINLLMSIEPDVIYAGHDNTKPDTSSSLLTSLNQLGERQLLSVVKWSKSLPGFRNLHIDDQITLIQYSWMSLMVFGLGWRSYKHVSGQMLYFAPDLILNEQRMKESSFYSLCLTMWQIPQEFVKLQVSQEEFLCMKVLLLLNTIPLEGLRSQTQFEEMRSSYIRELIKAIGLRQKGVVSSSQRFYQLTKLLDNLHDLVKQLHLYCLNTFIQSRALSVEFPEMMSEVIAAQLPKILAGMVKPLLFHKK
Sequence of UniProt P10275 (P10275 whole entry, looked up): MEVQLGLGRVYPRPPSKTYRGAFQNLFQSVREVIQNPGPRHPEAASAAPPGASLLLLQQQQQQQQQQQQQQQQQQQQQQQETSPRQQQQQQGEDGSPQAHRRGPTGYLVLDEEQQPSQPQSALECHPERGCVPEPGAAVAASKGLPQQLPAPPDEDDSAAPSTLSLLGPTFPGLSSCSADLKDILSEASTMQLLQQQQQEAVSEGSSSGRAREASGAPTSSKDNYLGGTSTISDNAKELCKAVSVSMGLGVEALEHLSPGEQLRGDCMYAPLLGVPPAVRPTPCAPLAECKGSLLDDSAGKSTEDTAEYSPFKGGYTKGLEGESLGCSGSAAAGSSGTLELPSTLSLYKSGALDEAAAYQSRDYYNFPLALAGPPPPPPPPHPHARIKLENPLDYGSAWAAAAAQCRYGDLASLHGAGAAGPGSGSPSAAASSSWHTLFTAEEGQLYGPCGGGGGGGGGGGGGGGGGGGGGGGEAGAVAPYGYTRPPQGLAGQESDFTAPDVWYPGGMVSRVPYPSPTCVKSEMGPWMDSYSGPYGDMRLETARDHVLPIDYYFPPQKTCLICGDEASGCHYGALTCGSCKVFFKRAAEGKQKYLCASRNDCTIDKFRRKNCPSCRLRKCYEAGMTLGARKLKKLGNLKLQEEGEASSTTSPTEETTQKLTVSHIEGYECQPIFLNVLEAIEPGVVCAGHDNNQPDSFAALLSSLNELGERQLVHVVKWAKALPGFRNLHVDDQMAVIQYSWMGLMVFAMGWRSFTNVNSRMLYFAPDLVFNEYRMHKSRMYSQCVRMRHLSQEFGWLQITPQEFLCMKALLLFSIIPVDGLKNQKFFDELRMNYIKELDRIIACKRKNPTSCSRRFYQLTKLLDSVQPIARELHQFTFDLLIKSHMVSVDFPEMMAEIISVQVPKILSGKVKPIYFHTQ

CCCC/C=C/CCCCO
inconclusive: Potency [1] 24.3 µM [rising, partial curve] | Potency [2] 2.73 µM [falling, single point]

O=C(Nc1cccc2c(=O)cc(-c3nn[nH]n3)oc12)c1ccc(OCCCCc2ccccc2)cc1
active: Potency [1] 10.6 µM
inconclusive: Potency [3] 13.3 µM [cytotoxic, full curve] | Potency [4] 3.35 µM [cytotoxic, full curve, poor fit] | Potency [5] 10.7 µM [rising, partial curve, poor fit] | Potency [6, 15] 21.3 µM [rising, partial curve, poor fit]

NCCO
inconclusive: Potency [1] 68.6 µM [cytotoxic] | Potency [3] 68.6 µM [cytotoxic, partial curve, poor fit] | Potency [7, 16] 68.6 µM [phenotype inactive, single point] | Potency [4] 27.3 µM [rising, single point] | Potency [8] 54.9 µM [cytotoxic, partial curve, poor fit]

Clc1cccc(Cl)c1NC1=NCCN1
inconclusive: Potency [1] 54.5 µM [cytotoxic, partial curve, poor fit] | Potency [9] 61.1 µM [cytotoxic, partial curve, poor fit] | Potency [10] 27.3 µM [cytotoxic, full curve] | Potency [4] 24.3 µM [cytotoxic, full curve] | Potency [11] 61.6 µM [cytotoxic, single point] | activity, negative = inhibition [6, 15] -43.2%

CN(C/C=C/c1ccccc1)Cc1cccc2ccccc12
inconclusive: Potency [1] 23.7 µM [cytotoxic, partial curve, poor fit] | Potency [3] 11.9 µM [cytotoxic, full curve] | Potency [12] 33.5 µM [falling, single point] | Potency [9] 2.98 µM [cytotoxic, single point] | activity change, negative = inhibition [7, 16] -52.2% [at 42.5 µM] | Potency [8] 26.8 µM [cytotoxic, partial curve] | activity, negative = inhibition [6, 15] -20.4% [at 35.3 µM]

CCN(CC)CCOc1ccccc1C(=O)CCc1ccccc1
active: Potency [1] 21.1 µM | Potency [10] 11.9 µM | Potency [4] 9.44 µM
inconclusive: Potency [3] 15 µM [cytotoxic, partial curve]

O=C1c2ccccc2C(=O)C1(O)O
inconclusive: Potency [1] 10.9 µM [cytotoxic, full curve] | Potency [12] 38.8 µM [falling, partial curve] | Potency [9] 61.4 µM [cytotoxic, partial curve] | Potency [8] 55.3 µM [cytotoxic, single point] | Potency [5] 62 µM [rising, single point]

CCN1/C(=C/C=C/c2sc3ccccc3[n+]2CC)Sc2ccccc21
active: Potency [7, 16] 11.6 µM | Potency [8] 4.65 µM
inconclusive: Potency [1] 2.59 µM [cytotoxic, full curve] | Potency [12] 7.3 µM [falling, partial curve, poor fit] | activation [2] -5.28% [at 19 µM] | Potency [10] 16.4 µM [cytotoxic, single point] | Potency [4] 1.64 µM [rising, partial curve] | Potency [11] 13.1 µM [cytotoxic, partial curve]

CCN(CC)CCOC(=O)C(Cc1cccc2ccccc12)CC1CCCO1 (centres undefined)
inactive: Potency [7, 16]
inconclusive: Potency [1] 26.6 µM [cytotoxic] | Potency [12] 18.8 µM [falling, partial curve] | Potency [9] 13.3 µM [cytotoxic, partial curve] | Potency [4] 7.5 µM [cytotoxic, full curve, poor fit]

C/C=C(\C)C(=O)OC/C=C(\C)CCC=C(C)C
inactive: Potency [1] | Potency [13] | Potency [4]

CC[C@H]1CN2CCc3cc(OC)c(OC)cc3[C@@H]2C[C@@H]1C[C@H]1NCCc2cc(OC)c(OC)cc21
inconclusive: Potency [1] 0.106 µM [cytotoxic, full curve, poor fit] | Potency [9] 10.6 µM [cytotoxic, partial curve] | Potency [2] 0.0487 µM [activator] | Potency [10] 0.0546 µM [cytotoxic, full curve] | Potency [4] 77.2 µM [cytotoxic, partial curve, poor fit] | activity, negative = inhibition ([6]; at 35.3 µM (top of the series)) 11.4% | activity, negative = inhibition ([6]; at 76.8 µM (top of the series)) 1.95%

CC1COC(=O)O1 (centres undefined)
inconclusive: Potency [14] 5.01 µM [rising, full curve, poor fit]

C=C1C[C@@]23CC[C@H]4[C@@](C)(CCC[C@@]4(C)C(=O)O[C@@H]4O[C@H](CO)[C@@H](O)[C@H](O)[C@H]4O)[C@@H]2CC[C@]1(O[C@@H]1O[C@H](CO)[C@@H](O)[C@H](O[C@@H]2O[C@H](CO)[C@@H](O)[C@H](O)[C@H]2O)[C@H]1O[C@@H]1O[C@H](CO)[C@@H](O)[C@H](O)[C@H]1O)C3
inactive: Potency [3]

COC(=O)Nc1nc2ccc(S(=O)c3ccccc3)cc2[nH]1 (centres undefined)
inconclusive: activity change, negative = inhibition ([7]; at 42.5 µM (top of the series)) -8.38% | activity change, negative = inhibition ([7]; at 92.4 µM (top of the series)) -26.7% | activity, negative = inhibition ([6]; at 35.3 µM (top of the series)) 2.09% | activity, negative = inhibition ([6]; at 76.8 µM (top of the series)) 9.3%

COC(=O)C1CCC(C(=O)OC)CC1 (centres undefined)
inconclusive: Potency [11] 54.9 µM [cytotoxic, single point]
